# Source: PubChem BioAssay AID624418 (National Center for Advancing Translational Sciences (NCATS), 2012)
# In all, about 410,000 compounds went through this assay and about 530 (0.13%) were called active. This list was built around the results that the source calls inconclusive (neither active nor inactive); the mix of calls is not that of the screen. Calls follow the shape of the dose curve; as a rule, active = well fitted inhibition curve with a large enough effect; inconclusive = small, poorly fitted or top-dose-only effect, or another doubt; inactive = no such curve, though single readings can be large or run the other way. Where the call is inconclusive, the potency comes from a doubtful curve fit.
# Test: qHTS of GLP-1 Receptor Inverse Agonists: Cytotox Screen
# Details: HEK293 cAMP-luciferase reporter cells, luminescence, 24 h; activity change, negative = inhibition: at 38.3 µM (top of the series) unless noted
# Procedure, shortened: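 Compound-treated cells are incubated 24 hr at 37 deg C under 5% CO2 after a 12 hour attachment period, then luciferase detection reagent is added and luminescence is measured following 12 min at room temperature; lowered signal indicates toxicity.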
# % is scaled to controls: 0 for no effect and ±100 for the full control effect; potency is read from the fitted curve at half-maximal effect.
Compound,Potency,"activity change, negative = inhibition"
COc1cccc(-c2cc3nc(-c4ccccc4)cc(=O)n3[nH]2)c1,"inconclusive: 1.26 µM [inhibitor, full curve]",–
CN(C)CCOc1ccc(-c2c(-c3ccccc3)sc3ccccc23)cc1,"inconclusive: 28.2 µM [inhibitor, single point]",–
Cc1cccc(NC(=S)NC(=O)/C=C/c2ccco2)n1,"inconclusive: 28.2 µM [inhibitor, single point]",–
CCN(CC)CC(=O)Nc1ccc2c(c1)N(C(=O)CN(CC)CC)c1ccccc1CC2,active: 3.98 µM,–
Cc1cc(Nc2ccc([N+](=O)[O-])cc2)c2ccccc2n1,"inconclusive: 22.4 µM [inhibitor, single point]",–
O=C(N/N=C/c1cc([N+](=O)[O-])ccc1O)C1CCCCC1,"inconclusive: 7.94 µM [inhibitor, partial curve, poor fit]",–
CC(C)OCCCNC(=O)C1CCC(=O)N1C(C)C (stereo not given),"inconclusive: 0.501 µM [inhibitor, full curve, poor fit]",–
COc1ccc(C(=O)c2cc(OC)c(OC)c(OC)c2)cc1OC,"inconclusive: 2 µM [inhibitor, full curve, poor fit]",–
O=C(CN1CCN(c2ncc(C(F)(F)F)cc2Cl)CC1)N1CCN(c2ncc(C(F)(F)F)cc2Cl)CC1,–,inactive: 3.39%
O=c1[nH]c(CN2CCN(C/C=C/c3ccccc3)CC2)nc2ccccc12,–,inactive: -4.73%
COc1ccc(CCn2c(SCC(=O)Nc3cc(C)on3)nc3ccsc3c2=O)cc1OC,"inconclusive: 20 µM [inhibitor, partial curve, poor fit]",–
CCOC(=O)c1c(-c2ccccc2)oc2ccc(OCC(O)CNCCN(C)C)cc12 (stereo not given),"inconclusive: 28.2 µM [inhibitor, single point]",–
COc1ccc(-c2nc(N)ncc2-c2csc(C)n2)c(O)c1,"inconclusive: 2.51 µM [inhibitor, full curve, poor fit]",–
CC(C)C(=O)Nc1cccc(C(=O)OCC(=O)c2ccc(Cl)cc2Cl)c1,–,inactive: -18.6%
COc1ccc(OCC(=O)NCc2ccc3c(c2)CCN3C(=O)c2cccc(C)c2)cc1,"inconclusive: 4.47 µM [inhibitor, partial curve, poor fit]",–
CCOc1cc(OCC)cc(C(=O)NCCN2CCC(n3c(=O)[nH]c4ccccc43)CC2)c1,–,inactive: 1.98%
COc1cc(OC)cc(C(=O)NC(=S)N2CCCCCC2)c1,"inconclusive: 2.82 µM [inhibitor, full curve, poor fit]",–
O=C(Nc1ccccc1)c1cc(C2CCCN(C(=O)CCc3ccccc3)C2)on1 (stereo not given),–,inactive: -2.71%
CCOc1ccc(N(CC(=O)OC)S(=O)(=O)c2ccc3c(c2)n(C)c(=O)c(=O)n3C)cc1,inactive,–
S=C(NCc1cccs1)Nc1ccc(Br)cc1Cl,"inconclusive: 14.1 µM [inhibitor, single point]",–
COc1ccc(OC)c(NC(=S)NCc2ccccc2OC)c1,"inconclusive: 25.1 µM [inhibitor, single point]",–
CCN1CCCC1CNC(=O)c1ccc2c(c1)NC(=O)/C(=C\c1ccccc1F)S2 (stereo not given),"inconclusive: 28.2 µM [inhibitor, single point]",–

Compound,Potency,"activity change, negative = inhibition"
O=C(COC(=O)c1ccccc1F)Nc1cccnc1Cl,–,inactive: 17.5%
CCc1ccc(CN(C)Cc2nc(Cc3ccc(OC)c(OC)c3)no2)nc1,"inconclusive: 10 µM [inhibitor, single point]",–
COc1ccccc1/C=C/c1ccc2cccc(O)c2n1,"inconclusive: 31.6 µM [inhibitor, single point]",–
CCSc1nc(-c2ccccc2)cc(=O)[nH]1,"inconclusive: 11.2 µM [inhibitor, single point]",–
O=C1c2cccc3c(O)ccc(c23)C(=O)N1Cc1ccco1,–,inactive: 136%
CCN(CC)CCNC(=O)c1cc2c(=O)n(C)c3ccccc3c2s1,"inconclusive: 10 µM [inhibitor, single point]",–
COC(=O)c1nnn(-c2nc(N(C)C)nc(N(C)C)n2)c1C,–,inactive: 4.84%
CC(NCC(O)COCCC12CC3CC(CC(C3)C1)C2)c1ccccc1 (stereo not given),"inconclusive: 28.2 µM [inhibitor, single point]",–
CCC1CCCCN1CCn1c(=S)[nH]c2cc(OC)c(OC)cc2c1=O (stereo not given),"inconclusive: 10 µM [inhibitor, single point]",–
C=CCNC(=O)c1ccc2c3n(nc2c1)-c1ccc(Cl)cc1CO3,–,inactive: 3.8%
CCc1cnc2c(c1SCc1cc(OC)cc(OC)c1)c(=O)n(C)c(=O)n2C,–,inactive: 1.94%
Cc1ccc(OCCn2c(C3CC(=O)N(Cc4ccc(F)cc4)C3)nc3ccccc32)c(C)c1 (stereo not given),"inconclusive: 20 µM [inhibitor, single point]",–
O=C1N[C@@H](Cc2c[nH]c3ccccc23)COC(=O)[C@H](Cc2ccc(F)cc2)C/C=C\C[C@H]1CC(=O)N(CCO)Cc1ccccc1,"inconclusive: 28.2 µM [inhibitor, single point]",–
O=C(CCCC(=O)N(c1ccc2c(c1)OCCO2)C(C(=O)NC1CCCCC1)c1ccc(Cl)cc1)Nc1ccccn1 (stereo not given),"inconclusive: 5.62 µM [inhibitor, full curve, poor fit]",–
CCOC(=O)c1cnc(-n2nc(C)cc2C)nc1Nc1ccc(OC)cc1,"inconclusive: 1.78 µM [inhibitor, full curve, poor fit]",–
O=C(NC(=S)N1CCCCCC1)c1ccccc1Cl,active: 5.01 µM,–
COc1ccc(/C=c2\s/c(=C\C(=O)C(C)(C)C)[nH]c2=O)cc1O,"inconclusive: 35.5 µM [inhibitor, partial curve, poor fit]",–
Cc1nc(C(=O)Nc2ccccc2Cl)cc2c1[nH]c1ccccc12,"inconclusive: 10 µM [inhibitor, partial curve]",–
O=C(CCN1C(=O)/C(=C/c2ccccc2F)SC1=S)N[C@@H](CO)Cc1ccccc1,"inconclusive: 14.1 µM [inhibitor, single point]",–
CC1=C(C(=O)c2ccccc2)C(c2cn(-c3ccccc3)nc2-c2ccc(Cl)cc2)NC(=S)N1 (stereo not given),–,inactive: -10.2%
COc1ccc2nc(C)cc(NCc3cccc(C(F)(F)F)c3)c2c1,"inconclusive: 31.6 µM [inhibitor, single point]",–
COc1ccc(C(CNc2ccc(S(=O)(=O)N3CCCC3)cc2[N+](=O)[O-])N2CCCC2)cc1 (stereo not given),"inconclusive: 14.1 µM [inhibitor, single point]",–

Compound,Potency,"activity change, negative = inhibition"
CC(=O)c1ccc2c(c1)CC1(C2)Cc2cc3c(cc2C1)C(=O)CC3 (stereo not given),"inconclusive: 1.26 µM [inhibitor, full curve, poor fit]",–
CCc1ccc(/C=C2/SC(=S)N(CCC(=O)NCCCN3CCOCC3)C2=O)cc1,"inconclusive: 14.1 µM [inhibitor, partial curve, poor fit]",–
COc1ccccc1NC(=O)Nc1nnc(CC(=O)Nc2ccccc2C)s1,–,inactive: -7.75%
Cc1cc(C)c2nc3sc(C(=O)N4CCOCC4)c(N)c3cc2c1,–,inactive: 1.86%
CCc1ccc(C(=O)N2CCCC2)s1,"inconclusive: 2.24 µM [inhibitor, full curve, poor fit]",–
COc1ccc(C(CNC(=O)c2oc3c(Cl)cccc3c2C)N2CCCC2)cc1 (stereo not given),"inconclusive: 28.2 µM [inhibitor, single point]",–
COc1ccc(CCNC(=O)/C(C#N)=C/c2cccc(OCc3ccccc3)c2)cc1OC,"inconclusive: 11.2 µM [inhibitor, partial curve, poor fit]",–
CCOc1ccc(C(=O)NC(=S)NC2CCCC2)cc1[N+](=O)[O-],"inconclusive: 31.6 µM [inhibitor, single point]",–
CCc1nnc(NC(=O)CSc2nnc(-c3ccccc3O)n2-c2ccc(C)cc2C)s1,"inconclusive: 6.31 µM [inhibitor, partial curve, poor fit]",–
COc1cc(C(=O)N/N=C/c2sccc2C)cc(OC)c1OC,"inconclusive: 0.562 µM [inhibitor, full curve, poor fit]",–
CCSc1nc(N2CCCCC2)c2c(c1C#N)CCCC2,–,inactive: 0.773%
O=C(Cc1coc2cc3c(cc12)CCC3)NCC1(N2CCCCC2)CCCCC1,"inconclusive: 10 µM [inhibitor, partial curve, poor fit]",–
CC1=NN(C(N)=S)C(=O)C1N=Nc1cccc(Cl)c1 (stereo not given),"inconclusive: 0.355 µM [inhibitor, full curve, poor fit]",–
Cc1[nH][nH]c(=O)c1C(c1ccc(O)c([N+](=O)[O-])c1)c1c(C)[nH][nH]c1=O,"inconclusive: 6.31 µM [inhibitor, partial curve, poor fit]",–
O=C(CCCn1c(=S)[nH]c2ccsc2c1=O)Nc1ccc2c(c1)OCCO2,–,inactive: 15.7%
C=C(C)CNC(=S)N/N=C/c1ccc(N2CCOCC2)cc1,"inconclusive: 7.08 µM [inhibitor, partial curve, poor fit]",–
O=C(Nc1cccc(S(=O)(=O)C(F)F)c1)c1ccc(Cl)c(S(=O)(=O)N2CCOCC2)c1,"inconclusive: 28.2 µM [inhibitor, single point]",–
Cc1ccc(C23CC4CC(CC(CN)(C4)C2)C3)cc1,"inconclusive: 28.2 µM [inhibitor, single point]",–
COc1cccc(-c2cnc3c(NC=O)cc(-c4cc(C)c(O)c(C)c4)cn23)c1,"inconclusive: 3.98 µM [inhibitor, partial curve]",–
CC(C)CNC(=O)CC(=O)N/N=C/c1ccc(Br)cc1,"inconclusive: 12.6 µM [inhibitor, partial curve, poor fit]",–
O=C(Nc1cccc(F)c1)NC1CCCc2ccccc21 (stereo not given),"inconclusive: 20 µM [inhibitor, single point]",–
